# Positions count from the first letter of the chain named. Some of the results follow.
# T1: RBFOX1 RRM (Homo sapiens, UniProt Q9NWB1 109-208)
# T1 sequence: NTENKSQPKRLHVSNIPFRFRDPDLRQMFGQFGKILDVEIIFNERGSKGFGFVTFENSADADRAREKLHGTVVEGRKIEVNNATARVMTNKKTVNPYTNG
# B1: UAGUGUA (DNA:RNA)
# RNA: GGGAGACCGGAAUUCAGAUUGUCCUAGUGUAUUAAAUCCCGUCGUAGCCACCA
# DNA 1: CAATCTGAATTCCGGTCTCCC
# DNA 2: TGGTGGCTACGACGGGATT
# B2: AGACCCC (DNA:RNA)
# RNA: GGGAGACCGGAAUUCAGAUUGUCCAGACCCCUUAAAUCCCGUCGUAGCCACCA
# DNA 1: CAATCTGAATTCCGGTCTCCC
# DNA 2: TGGTGGCTACGACGGGATT
# B3: GUUAAAC (DNA:RNA)
# RNA: B2 RNA with A25G, G26U, A27U, C28A, C29A, C30A
# DNA 1: CAATCTGAATTCCGGTCTCCC
# DNA 2: TGGTGGCTACGACGGGATT
# B4: CUUUGCA (DNA:RNA)
# RNA: B1 RNA with U25C, A26U, G27U, U30C
# DNA 1: CAATCTGAATTCCGGTCTCCC
# DNA 2: TGGTGGCTACGACGGGATT
# B5: UGCGCUC (DNA:RNA)
# RNA: B2 RNA with A25U, A27C, C28G, C30U
# DNA 1: CAATCTGAATTCCGGTCTCCC
# DNA 2: TGGTGGCTACGACGGGATT
# B6: AUGCGAG (DNA:RNA)
# RNA: B2 RNA with G26U, A27G, C29G, C30A, C31G
# DNA 1: CAATCTGAATTCCGGTCTCCC
# DNA 2: TGGTGGCTACGACGGGATT
# B7: AAGGGAG (DNA:RNA)
# RNA: B1 RNA with U25A, U28G, U30A, A31G
# DNA 1: CAATCTGAATTCCGGTCTCCC
# DNA 2: TGGTGGCTACGACGGGATT
# B8: UGGAGGA (DNA:RNA)
# RNA: B1 RNA with A26G, U28A, U30G
# DNA 1: CAATCTGAATTCCGGTCTCCC
# DNA 2: TGGTGGCTACGACGGGATT
# B9: AACACAC (DNA:RNA)
# RNA: B2 RNA with G26A, A27C, C28A, C30A
# DNA 1: CAATCTGAATTCCGGTCTCCC
# DNA 2: TGGTGGCTACGACGGGATT
# B10: CGCGCCG (DNA:RNA)
# RNA: B2 RNA with A25C, A27C, C28G, C31G
# DNA 1: CAATCTGAATTCCGGTCTCCC
# DNA 2: TGGTGGCTACGACGGGATT
# B11: CGAUGGG (DNA:RNA)
# RNA: B2 RNA with A25C, C28U, C29G, C30G, C31G
# DNA 1: CAATCTGAATTCCGGTCTCCC
# DNA 2: TGGTGGCTACGACGGGATT
# B12: AGCUACU (DNA:RNA)
# RNA: B2 RNA with A27C, C28U, C29A, C31U
# DNA 1: CAATCTGAATTCCGGTCTCCC
# DNA 2: TGGTGGCTACGACGGGATT
# B13: ACUAGGC (DNA:RNA)
# RNA: B2 RNA with G26C, A27U, C28A, C29G, C30G
# DNA 1: CAATCTGAATTCCGGTCTCCC
# DNA 2: TGGTGGCTACGACGGGATT
# B14: CAGCCAA (DNA:RNA)
# RNA: B1 RNA with U25C, U28C, G29C, U30A
# DNA 1: CAATCTGAATTCCGGTCTCCC
# DNA 2: TGGTGGCTACGACGGGATT
# B15: AAUCAUC (DNA:RNA)
# RNA: B2 RNA with G26A, A27U, C29A, C30U
# DNA 1: CAATCTGAATTCCGGTCTCCC
# DNA 2: TGGTGGCTACGACGGGATT
# B16: GGGUCAG (DNA:RNA)
# RNA: B2 RNA with A25G, A27G, C28U, C30A, C31G
# DNA 1: CAATCTGAATTCCGGTCTCCC
# DNA 2: TGGTGGCTACGACGGGATT
# B17: CCGGAGC (DNA:RNA)
# RNA: B2 RNA with A25C, G26C, A27G, C28G, C29A, C30G
# DNA 1: CAATCTGAATTCCGGTCTCCC
# DNA 2: TGGTGGCTACGACGGGATT
# B18: GCUCCUU (DNA:RNA)
# RNA: B2 RNA with A25G, G26C, A27U, C30U, C31U
# DNA 1: CAATCTGAATTCCGGTCTCCC
# DNA 2: TGGTGGCTACGACGGGATT
# B19: CUCCUAG (DNA:RNA)
# RNA: B2 RNA with A25C, G26U, A27C, C29U, C30A, C31G
# DNA 1: CAATCTGAATTCCGGTCTCCC
# DNA 2: TGGTGGCTACGACGGGATT
# B20: GGCACAU (DNA:RNA)
# RNA: B2 RNA with A25G, A27C, C28A, C30A, C31U
# DNA 1: CAATCTGAATTCCGGTCTCCC
# DNA 2: TGGTGGCTACGACGGGATT
# B21: CACUCAA (DNA:RNA)
# RNA: B1 RNA with U25C, G27C, G29C, U30A
# DNA 1: CAATCTGAATTCCGGTCTCCC
# DNA 2: TGGTGGCTACGACGGGATT
# B22: CGGCGCC (DNA:RNA)
# RNA: B2 RNA with A25C, A27G, C29G
# DNA 1: CAATCTGAATTCCGGTCTCCC
# DNA 2: TGGTGGCTACGACGGGATT
# B23: GAGCUGG (DNA:RNA)
# RNA: B1 RNA with U25G, U28C, G29U, U30G, A31G
# DNA 1: CAATCTGAATTCCGGTCTCCC
# DNA 2: TGGTGGCTACGACGGGATT
# B24: UAUUUUC (DNA:RNA)
# RNA: B1 RNA with G27U, G29U, A31C
# DNA 1: CAATCTGAATTCCGGTCTCCC
# DNA 2: TGGTGGCTACGACGGGATT
# B25: GGUUUGU (DNA:RNA)
# RNA: B2 RNA with A25G, A27U, C28U, C29U, C30G, C31U
# DNA 1: CAATCTGAATTCCGGTCTCCC
# DNA 2: TGGTGGCTACGACGGGATT
# B26: GAGAGGU (DNA:RNA)
# RNA: B1 RNA with U25G, U28A, U30G, A31U
# DNA 1: CAATCTGAATTCCGGTCTCCC
# DNA 2: TGGTGGCTACGACGGGATT
# B27: CACUUUC (DNA:RNA)
# RNA: B1 RNA with U25C, G27C, G29U, A31C
# DNA 1: CAATCTGAATTCCGGTCTCCC
# DNA 2: TGGTGGCTACGACGGGATT
# B28: CGCAUCG (DNA:RNA)
# RNA: B2 RNA with A25C, A27C, C28A, C29U, C31G
# DNA 1: CAATCTGAATTCCGGTCTCCC
# DNA 2: TGGTGGCTACGACGGGATT
# B29: GAUGUCA (DNA:RNA)
# RNA: B1 RNA with U25G, G27U, U28G, G29U, U30C
# DNA 1: CAATCTGAATTCCGGTCTCCC
# DNA 2: TGGTGGCTACGACGGGATT
# B30: UGUAGUC (DNA:RNA)
# RNA: B1 RNA with A26G, G27U, U28A, A31C
# DNA 1: CAATCTGAATTCCGGTCTCCC
# DNA 2: TGGTGGCTACGACGGGATT
# B31: AGUGCGG (DNA:RNA)
# RNA: B2 RNA with A27U, C28G, C30G, C31G
# DNA 1: CAATCTGAATTCCGGTCTCCC
# DNA 2: TGGTGGCTACGACGGGATT
# Molecular target: T1, RBFOX1 RRM
# Test: EMSA; HiTS-Eq, 1 nM pool, 10 min; buffer printed only for the single-RNA assays: 10 mM Tris pH 7.5, 150 mM NaCl, 3.4 mM EDTA, 0.001% NP-40, 30 C
# Details: tags: His6 N-terminal (pET28a); label: 5' 32P
# In short: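 These values rest on relative association constants, computed from read-count changes of each RNA species versus the control reaction and normalised to the cognate motif. Reads came from free RNA recovered by 8% native PAGE after purified RbFox RRM (wild type or mutant) at increasing concentrations was equilibrated for 10 min in 50 µL with 1 nM of a 5′-radiolabelled pool with 7 randomized nucleotides and DNA-annealed flanks.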
row,Binder,binding signal
1,B1,0.0176 KA relative to UGCAUGU
2,B2,0.0038 KA relative to UGCAUGU
3,B3,0.00333 KA relative to UGCAUGU
4,B4,0.0214 KA relative to UGCAUGU
5,B5,0.018 KA relative to UGCAUGU
6,B6,0.0138 KA relative to UGCAUGU
7,B7,0.00672 KA relative to UGCAUGU
8,B8,0.0139 KA relative to UGCAUGU
9,B9,0.000478 KA relative to UGCAUGU
10,B10,0.00795 KA relative to UGCAUGU
11,B11,0.00511 KA relative to UGCAUGU
12,B12,0.00701 KA relative to UGCAUGU
13,B13,0.00637 KA relative to UGCAUGU
14,B14,0.00165 KA relative to UGCAUGU
15,B15,0.00129 KA relative to UGCAUGU
16,B16,0.0155 KA relative to UGCAUGU

row,Binder,binding signal
1,B17,0.0166 KA relative to UGCAUGU
2,B18,0.00439 KA relative to UGCAUGU
3,B19,0.006 KA relative to UGCAUGU
4,B20,0.000691 KA relative to UGCAUGU
5,B21,0.000845 KA relative to UGCAUGU
6,B22,0.0128 KA relative to UGCAUGU
7,B23,0.0259 KA relative to UGCAUGU
8,B24,0.0125 KA relative to UGCAUGU
9,B25,0.0171 KA relative to UGCAUGU
10,B26,0.0104 KA relative to UGCAUGU
11,B27,0.00518 KA relative to UGCAUGU
12,B28,0.017 KA relative to UGCAUGU
13,B29,0.015 KA relative to UGCAUGU
14,B30,0.0214 KA relative to UGCAUGU
15,B31,0.0131 KA relative to UGCAUGU
